Experimental data published in publication PMC8321701.
No constants are given. Whether binding was seen depends on the method and setting. Some results given as binding are weak or reduced against the parent protein; the word gives no strength. For some of these results: Where a sequence is shown, tags or fusion partners need not be part of it.

The chains behind the UniProt entries cited, without tags or fusion partners. Where a name states a change or a piece, a line headed by the entry shows the natural chain unless it says otherwise.
UniProt P62745: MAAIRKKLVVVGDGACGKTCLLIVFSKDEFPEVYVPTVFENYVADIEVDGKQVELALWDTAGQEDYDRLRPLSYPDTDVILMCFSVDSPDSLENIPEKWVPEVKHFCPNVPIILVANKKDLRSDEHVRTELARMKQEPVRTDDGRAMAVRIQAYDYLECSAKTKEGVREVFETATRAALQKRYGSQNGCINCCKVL
UniProt P29350: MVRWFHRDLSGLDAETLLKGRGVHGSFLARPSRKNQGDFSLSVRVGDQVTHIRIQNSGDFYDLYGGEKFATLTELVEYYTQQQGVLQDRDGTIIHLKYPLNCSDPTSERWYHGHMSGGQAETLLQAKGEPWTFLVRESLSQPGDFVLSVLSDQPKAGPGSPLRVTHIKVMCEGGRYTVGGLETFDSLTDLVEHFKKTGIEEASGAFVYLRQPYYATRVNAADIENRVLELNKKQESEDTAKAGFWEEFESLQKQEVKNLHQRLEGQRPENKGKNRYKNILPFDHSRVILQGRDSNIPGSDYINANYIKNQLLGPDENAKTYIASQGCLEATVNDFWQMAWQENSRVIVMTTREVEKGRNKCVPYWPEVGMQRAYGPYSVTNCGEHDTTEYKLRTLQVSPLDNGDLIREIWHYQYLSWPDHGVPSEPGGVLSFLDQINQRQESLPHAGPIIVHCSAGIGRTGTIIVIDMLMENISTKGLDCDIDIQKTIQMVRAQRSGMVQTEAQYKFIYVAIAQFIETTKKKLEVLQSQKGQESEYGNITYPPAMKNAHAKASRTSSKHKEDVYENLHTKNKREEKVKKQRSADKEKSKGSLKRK
UniProt O75145: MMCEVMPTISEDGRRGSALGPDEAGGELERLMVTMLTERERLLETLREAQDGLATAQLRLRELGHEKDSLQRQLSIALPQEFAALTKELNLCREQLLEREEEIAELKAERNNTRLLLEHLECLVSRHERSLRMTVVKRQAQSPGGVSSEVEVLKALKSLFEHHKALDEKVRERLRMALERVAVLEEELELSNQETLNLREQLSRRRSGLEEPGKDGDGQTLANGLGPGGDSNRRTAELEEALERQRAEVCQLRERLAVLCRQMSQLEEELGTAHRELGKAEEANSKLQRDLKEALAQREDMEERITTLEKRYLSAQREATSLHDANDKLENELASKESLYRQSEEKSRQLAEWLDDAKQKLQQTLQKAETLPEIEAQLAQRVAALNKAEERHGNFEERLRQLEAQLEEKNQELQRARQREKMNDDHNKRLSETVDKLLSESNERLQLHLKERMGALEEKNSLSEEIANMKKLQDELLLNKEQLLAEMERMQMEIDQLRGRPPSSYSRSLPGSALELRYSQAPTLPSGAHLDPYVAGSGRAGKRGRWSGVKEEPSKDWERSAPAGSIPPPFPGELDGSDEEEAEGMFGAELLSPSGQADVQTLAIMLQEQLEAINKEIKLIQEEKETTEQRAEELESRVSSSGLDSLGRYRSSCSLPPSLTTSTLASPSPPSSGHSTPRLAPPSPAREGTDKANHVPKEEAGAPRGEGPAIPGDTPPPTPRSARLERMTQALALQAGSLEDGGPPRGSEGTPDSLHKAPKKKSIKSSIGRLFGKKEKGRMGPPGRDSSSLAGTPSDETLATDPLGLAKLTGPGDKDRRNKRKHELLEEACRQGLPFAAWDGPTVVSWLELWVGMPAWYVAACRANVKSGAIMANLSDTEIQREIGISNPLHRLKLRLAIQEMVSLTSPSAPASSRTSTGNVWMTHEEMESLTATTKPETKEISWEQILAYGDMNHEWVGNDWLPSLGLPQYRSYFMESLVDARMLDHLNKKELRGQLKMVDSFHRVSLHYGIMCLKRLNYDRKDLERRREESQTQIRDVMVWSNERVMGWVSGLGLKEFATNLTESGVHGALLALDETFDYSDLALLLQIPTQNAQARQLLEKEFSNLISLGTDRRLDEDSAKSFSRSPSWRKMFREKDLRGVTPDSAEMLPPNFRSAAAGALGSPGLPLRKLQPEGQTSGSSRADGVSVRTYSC
UniProt O14638: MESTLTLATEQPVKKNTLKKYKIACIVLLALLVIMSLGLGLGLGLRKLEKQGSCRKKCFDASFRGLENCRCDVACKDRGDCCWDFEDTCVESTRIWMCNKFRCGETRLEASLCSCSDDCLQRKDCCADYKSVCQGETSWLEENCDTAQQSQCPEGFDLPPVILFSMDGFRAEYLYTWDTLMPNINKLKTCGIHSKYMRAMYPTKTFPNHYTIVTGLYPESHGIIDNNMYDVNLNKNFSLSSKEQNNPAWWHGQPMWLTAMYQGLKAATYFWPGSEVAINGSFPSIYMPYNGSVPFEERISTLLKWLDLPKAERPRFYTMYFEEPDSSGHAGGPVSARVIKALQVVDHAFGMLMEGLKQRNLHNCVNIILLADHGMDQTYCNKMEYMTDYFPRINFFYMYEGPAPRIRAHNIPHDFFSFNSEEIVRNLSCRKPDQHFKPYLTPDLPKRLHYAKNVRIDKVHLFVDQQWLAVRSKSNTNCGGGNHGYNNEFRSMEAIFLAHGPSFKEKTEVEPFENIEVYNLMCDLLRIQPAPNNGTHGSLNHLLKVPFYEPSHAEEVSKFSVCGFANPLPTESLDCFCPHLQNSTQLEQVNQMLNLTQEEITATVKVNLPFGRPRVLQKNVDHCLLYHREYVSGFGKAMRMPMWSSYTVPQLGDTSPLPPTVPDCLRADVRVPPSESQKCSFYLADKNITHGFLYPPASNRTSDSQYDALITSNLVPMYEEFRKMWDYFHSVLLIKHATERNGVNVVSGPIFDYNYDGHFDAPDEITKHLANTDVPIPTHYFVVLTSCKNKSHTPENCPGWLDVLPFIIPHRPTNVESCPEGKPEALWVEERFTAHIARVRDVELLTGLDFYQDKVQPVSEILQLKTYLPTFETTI
UniProt Q13136: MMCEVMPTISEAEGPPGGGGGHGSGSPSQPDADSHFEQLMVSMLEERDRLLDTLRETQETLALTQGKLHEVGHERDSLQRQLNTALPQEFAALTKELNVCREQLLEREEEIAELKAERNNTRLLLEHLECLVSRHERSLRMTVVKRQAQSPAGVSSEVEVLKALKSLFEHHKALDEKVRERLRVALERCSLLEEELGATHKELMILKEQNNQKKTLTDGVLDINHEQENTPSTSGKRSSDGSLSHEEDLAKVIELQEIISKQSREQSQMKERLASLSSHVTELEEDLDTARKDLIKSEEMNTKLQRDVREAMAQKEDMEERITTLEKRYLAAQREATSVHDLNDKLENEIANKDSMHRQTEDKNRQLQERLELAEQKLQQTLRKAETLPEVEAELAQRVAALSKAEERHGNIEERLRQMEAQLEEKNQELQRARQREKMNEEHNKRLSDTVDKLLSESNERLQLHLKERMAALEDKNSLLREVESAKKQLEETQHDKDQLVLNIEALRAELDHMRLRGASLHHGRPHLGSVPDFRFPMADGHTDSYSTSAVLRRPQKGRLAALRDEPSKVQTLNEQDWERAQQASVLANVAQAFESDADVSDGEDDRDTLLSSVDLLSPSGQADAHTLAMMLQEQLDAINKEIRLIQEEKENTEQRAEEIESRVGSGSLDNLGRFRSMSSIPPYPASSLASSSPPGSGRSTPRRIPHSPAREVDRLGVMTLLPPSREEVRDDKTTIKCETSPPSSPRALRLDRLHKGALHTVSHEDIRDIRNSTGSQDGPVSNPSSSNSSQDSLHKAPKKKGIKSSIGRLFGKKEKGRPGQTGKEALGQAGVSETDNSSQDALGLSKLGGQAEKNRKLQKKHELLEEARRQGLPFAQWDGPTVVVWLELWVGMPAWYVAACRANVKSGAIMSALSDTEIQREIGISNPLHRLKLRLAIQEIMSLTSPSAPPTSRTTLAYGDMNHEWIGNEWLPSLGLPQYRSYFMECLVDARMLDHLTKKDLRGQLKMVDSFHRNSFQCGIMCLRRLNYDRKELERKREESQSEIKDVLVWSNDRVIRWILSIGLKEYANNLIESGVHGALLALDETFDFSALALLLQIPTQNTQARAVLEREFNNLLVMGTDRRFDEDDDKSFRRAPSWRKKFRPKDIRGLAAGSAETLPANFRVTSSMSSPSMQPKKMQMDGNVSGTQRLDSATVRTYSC
UniProt Q12972: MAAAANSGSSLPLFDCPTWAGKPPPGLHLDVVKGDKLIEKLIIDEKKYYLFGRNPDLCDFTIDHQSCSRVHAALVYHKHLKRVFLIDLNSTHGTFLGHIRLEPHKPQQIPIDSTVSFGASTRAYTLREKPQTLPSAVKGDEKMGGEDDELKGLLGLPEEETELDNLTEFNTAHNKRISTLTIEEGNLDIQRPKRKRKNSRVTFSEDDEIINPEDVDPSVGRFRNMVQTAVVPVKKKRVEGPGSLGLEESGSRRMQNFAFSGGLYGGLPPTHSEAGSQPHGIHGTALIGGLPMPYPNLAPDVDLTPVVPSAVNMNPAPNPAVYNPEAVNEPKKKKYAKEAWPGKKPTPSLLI

T1: biotinylated CNKSR1 (wild-type) (human) (UniProt Q969H4)
T1 sequence (chain, biotinylated): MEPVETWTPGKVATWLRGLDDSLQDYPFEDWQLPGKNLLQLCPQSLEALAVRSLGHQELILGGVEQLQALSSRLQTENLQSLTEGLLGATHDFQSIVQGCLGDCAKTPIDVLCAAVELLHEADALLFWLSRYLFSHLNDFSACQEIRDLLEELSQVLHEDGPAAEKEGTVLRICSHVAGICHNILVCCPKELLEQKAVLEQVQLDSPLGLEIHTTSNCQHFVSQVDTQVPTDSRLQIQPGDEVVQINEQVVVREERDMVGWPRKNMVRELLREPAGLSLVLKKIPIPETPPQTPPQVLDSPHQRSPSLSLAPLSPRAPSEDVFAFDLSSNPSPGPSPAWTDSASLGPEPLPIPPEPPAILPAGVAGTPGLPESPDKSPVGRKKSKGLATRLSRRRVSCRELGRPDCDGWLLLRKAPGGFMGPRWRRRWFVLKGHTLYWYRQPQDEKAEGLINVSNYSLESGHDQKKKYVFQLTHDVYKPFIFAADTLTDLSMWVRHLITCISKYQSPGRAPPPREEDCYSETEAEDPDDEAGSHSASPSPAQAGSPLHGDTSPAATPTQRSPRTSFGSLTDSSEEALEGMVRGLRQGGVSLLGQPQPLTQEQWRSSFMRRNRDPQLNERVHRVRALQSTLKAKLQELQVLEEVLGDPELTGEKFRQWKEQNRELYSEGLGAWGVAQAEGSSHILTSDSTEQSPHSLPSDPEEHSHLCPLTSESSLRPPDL


Experiments:
[1] = biological target: T1, biotinylated CNKSR1 (wild-type) (human); test: AlphaScreen or HTRF; high-throughput screen: biotinylated CNKSR1 (WT, W493A) or RhoB (Q63L) bait with 171 FLAG-GST-tagged human phosphatases (154 full length, 17 catalytic domains); threshold 10 times the signal for CNKSR1-biotin/FLAG-DHFR; wheat cell-free translation products
[2] = biological target: FLAG-tagged RhoB (Q63L) (human) (UniProt P62745); test: AlphaScreen or HTRF; in vitro binding assay of a biotinylated and a FLAG-tagged protein, both synthesized by wheat germ extracts; 100 mM Tris-HCl pH 7.5, 0.01% Tween 20, 1 mg/ml BSA, anti-FLAG antibody, streptavidin donor and anti-IgG acceptor beads; room temperature, 1 h; threshold of interaction 10 times the signal with DHFR

Row | Molecule | binding [1] | binding [2]
1 | FLAG-GST-tagged PTPN6 of the human phosphatase array (from UniProt P29350 1-595) | binds | –
2 | FLAG-GST-tagged PPFIA3 of the human phosphatase array (from UniProt O75145 1-1194) | binds | –
3 | FLAG-GST-tagged G6PC3 of the human phosphatase array (protein, UniProt Q9BUM1 1-346) MESTLGAGIVIAEALQNQLAWLENVWLWITFLGDPKILFLFYFPAAYYASRRVGIAVLWISLITEWLNLIFKWFLFGDRPFWWVHESGYYSQAPAQVHQFPSSCETGPGSPSGHCMITGAALWPIMTALSSQVATRARSRWVRVMPSLAYCTFLLAVGLSRIFILAHFPHQVLAGLITGAVLGWLMTPRVPMERELSFYGLTALALMLGTSLIYWTLFTLGLDLSWSISLAFKWCERPEWIHVDSRPFASLSRDSGAALGLGIALHSPCYAQVRRAQLGNGQKIACLVLAMGLLGPLDWLGHPPQISLFYIFNFLKYTLWPCLVLALVPWAVHMFSAQEAPPIHSS | binds | –
4 | FLAG-GST-tagged PPP1R14C of the human phosphatase array (protein, UniProt Q8TAE6 1-165) MSVATGSSETAGGASGGGARVFFQSPRGGAGGSPGSSSGSGSSREDSAPVATAAAAGQVQQQQQRRHQQGKVTVKYDRKELRKRLVLEEWIVEQLGQLYGCEEEEMPEVEIDIDDLLDADSDEERASKLQEALVDCYKPTEEFIKELLSRIRGMRKLSPPQKKSV | binds | –
5 | FLAG-GST-tagged DUSP7 of the human phosphatase array (protein, UniProt Q16829 1-419) MKNQLRGPPARAHMSTSGAAAAGGTRAGSEPGAGSGSGAGTGAGAATGAGAMPCKSAEWLQEELEARGGASLLLLDCRPHELFESSHIETAINLAIPGLMLRRLRKGNLPIRSIIPNHADKERFATRCKAATVLLYDEATAEWQPEPGAPASVLGLLLQKLRDDGCQAYYLQGGFNKFQTEYSEHCETNVDSSSSPSSSPPTSVLGLGGLRISSDCSDGESDRELPSSATESDGSPVPSSQPAFPVQILPYLYLGCAKDSTNLDVLGKYGIKYILNVTPNLPNAFEHGGEFTYKQIPISDHWSQNLSQFFPEAISFIDEARSKKCGVLVHCLAGISRSVTVTVAYLMQKMNLSLNDAYDFVKRKKSNISPNFNFMGQLLDFERTLGLSSPCDNHASSEQLYFSTPTNHNLFPLNTLEST | binds | –
6 | biotinylated PH domain of CNKSR1, K414Q (domain or fragment, UniProt Q969H4 403-502, biotinylated) RPDCDGWLLLRQAPGGFMGPRWRRRWFVLKGHTLYWYRQPQDEKAEGLINVSNYSLESGHDQKKKYVFQLTHDVYKPFIFAADTLTDLSMWVRHLITCIS | – | binds
7 | biotinylated PH domain of CNKSR1, K414E/P416E/R423A/R425L/R426A/K478N (EEALAN) mutant (domain or fragment, UniProt Q969H4 403-502, biotinylated) RPDCDGWLLLREAEGGFMGPAWLARWFVLKGHTLYWYRQPQDEKAEGLINVSNYSLESGHDQKKKYVFQLTHDVYNPFIFAADTLTDLSMWVRHLITCIS | – | binds
8 | biotinylated PH domain of CNKSR1, K414R (domain or fragment, UniProt Q969H4 403-502, biotinylated) RPDCDGWLLLRRAPGGFMGPRWRRRWFVLKGHTLYWYRQPQDEKAEGLINVSNYSLESGHDQKKKYVFQLTHDVYKPFIFAADTLTDLSMWVRHLITCIS | – | binds

Further lines, results first:

Row | binding [1] | binding [2] | Molecule
9 | binds | – | FLAG-GST-tagged ENPP3 of the human phosphatase array (from UniProt O14638 1-875)
10 | binds | – | FLAG-GST-tagged PPFIA1 of the human phosphatase array (from UniProt Q13136 1-1202)
11 | binds | – | FLAG-GST-tagged PPP1R8 of the human phosphatase array (from UniProt Q12972 1-351)
12 | binds | – | FLAG-GST-tagged PTPN18 of the human phosphatase array (protein, UniProt Q99952 1-460) MSRSLDSARSFLERLEARGGREGAVLAGEFSDIQACSAAWKADGVCSTVAGSRPENVRKNRYKDVLPYDQTRVILSLLQEEGHSDYINGNFIRGVDGSLAYIATQGPLPHTLLDFWRLVWEFGVKVILMACREIENGRKRCERYWAQEQEPLQTGLFCITLIKEKWLNEDIMLRTLKVTFQKESRSVYQLQYMSWPDRGVPSSPDHMLAMVEEARRLQGSGPEPLCVHCSAGCGRTGVLCTVDYVRQLLLTQMIPPDFSLFDVVLKMRKQRPAAVQTEEQYRFLYHTVAQMFCSTLQNASPHYQNIKENCAPLYDDALFLRTPQALLAIPRPPGGVLRSISVPGSPGHAMADTYAVVQKRGAPAGAGSGTQTGTGTGTGARSAEEAPLYSKVTPRAQRPGAHAEDARGTLPGRVPADQSPAGSGAYEDVAGGAQTGGLGFNLRIGRPKGPRDPPAEWTRV
13 | binds | – | FLAG-GST-tagged ILKAP of the human phosphatase array (protein, UniProt Q9H0C8 1-392) MDLFGDLPEPERSPRPAAGKEAQKGPLLFDDLPPASSTDSGSGGPLLFDDLPPASSGDSGSLATSISQMVKTEGKGAKRKTSEEEKNGSEELVEKKVCKASSVIFGLKGYVAERKGEREEMQDAHVILNDITEECRPPSSLITRVSYFAVFDGHGGIRASKFAAQNLHQNLIRKFPKGDVISVEKTVKRCLLDTFKHTDEEFLKQASSQKPAWKDGSTATCVLAVDNILYIANLGDSRAILCRYNEESQKHAALSLSKEHNPTQYEERMRIQKAGGNVRDGRVLGVLEVSRSIGDGQYKRCGVTSVPDIRRCQLTPNDRFILLACDGLFKVFTPEEAVNFILSCLEDEKIQTREGKSAADARYEAACNRLANKAVQRGSADNVTVMVVRIGH
14 | – | binds | biotinylated PH domain of CNKSR1 (wild-type) (domain or fragment, UniProt Q969H4 403-502, biotinylated) RPDCDGWLLLRKAPGGFMGPRWRRRWFVLKGHTLYWYRQPQDEKAEGLINVSNYSLESGHDQKKKYVFQLTHDVYKPFIFAADTLTDLSMWVRHLITCIS
15 | – | no binding | biotinylated PH domain of CNKSR1, W493A (domain or fragment, UniProt Q969H4 403-502, biotinylated) RPDCDGWLLLRKAPGGFMGPRWRRRWFVLKGHTLYWYRQPQDEKAEGLINVSNYSLESGHDQKKKYVFQLTHDVYKPFIFAADTLTDLSMAVRHLITCIS
16 | binds | – | FLAG-GST-tagged DUSP10 of the human phosphatase array (protein, UniProt Q9Y6W6 1-482) MPPSPLDDRVVVALSRPVRPQDLNLCLDSSYLGSANPGSNSHPPVIATTVVSLKAANLTYMPSSSGSARSLNCGCSSASCCTVATYDKDNQAQTQAIAAGTTTTAIGTSTTCPANQMVNNNENTGSLSPSSGVGSPVSGTPKQLASIKIIYPNDLAKKMTKCSKSHLPSQGPVIIDCRPFMEYNKSHIQGAVHINCADKISRRRLQQGKITVLDLISCREGKDSFKRIFSKEIIVYDENTNEPSRVMPSQPLHIVLESLKREGKEPLVLKGGLSSFKQNHENLCDNSLQLQECREVGGGASAASSLLPQPIPTTPDIENAELTPILPFLFLGNEQDAQDLDTMQRLNIGYVINVTTHLPLYHYEKGLFNYKRLPATDSNKQNLRQYFEEAFEFIEEAHQCGKGLLIHCQAGVSRSATIVIAYLMKHTRMTMTDAYKFVKGKRPIISPNLNFMGQLLEFEEDLNNGVTPRILTPKLMGVETVV
